Test results reported in PubChem BioAssay AID686978 (National Center for Advancing Translational Sciences (NCATS), 2013).
Where “and” joins values, the source holds several entries; their conditions need not be identical. Equal entries are not always repeated. Screen size: about 420,000 compounds; about 64,000 (15%) were called active. The inconclusive results got no clear call from the source; some entries with a clear call stand among them for comparison. Calls come from the whole dose curve; as a rule, active = well fitted inhibition curve with a large enough effect; inconclusive = small, poorly fitted or top-dose-only effect; inactive = flat fitted curve, though single readings scatter. Potencies of inconclusive entries are doubtful fits and often do not repeat.

Assay: qHTS for Inhibitors of human tyrosyl-DNA phosphodiesterase 1 (TDP1): qHTS in cells in absence of CPT; note: nearly all actives have a fitted effect of over 55% in size
Settings: DT40 Tdp1-/- hTDP1 cells, no CPT, ATP luminescence, 48 h; activity change, negative = growth inhibition: at 46.2 µM (top of the series) unless noted
Outline: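 Growth kinetics read by CellTiter-Glo luminescence after ≥48 hr at 37 °C. Cells: DT40 Tdp1-/- stably carrying human TDP1, 400 per well, compound exposure in the absence of CPT (DMSO vehicle).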
% is set by controls: 0 for no effect and ±100 for the full control effect; potency is the fitted concentration of half-maximal effect; tags give direction and shape of the fitted curve.

SMILES	Potency	activity change, negative = growth inhibition
CCNC(=S)Nc1ccc2cn[nH]c2c1	inactive	
CCCc1cc(=O)oc2c(C)c3c(cc12)CN(CCc1ccc(Cl)cc1)CO3	active: 14.6 µM	
Cc1cc(C)cc(NC(=O)N2CCC(C(=O)c3ccc(F)cc3)CC2)c1	inconclusive: 16.4 µM [inhibitor, single point]	
CC(NC(=O)COc1ccc(S(=O)(=O)N2CCCC2)cc1)c1ccccc1 (stereo not drawn)	inactive	
O=C(O)/C=C/C(=O)N(Cc1ccccc1)Cc1ccco1	inactive	
Cc1ccc2oc(-c3cc(NC(=O)CC(C)C)ccc3Cl)nc2c1	active: 11.6 µM	
OC(COc1cccc2ccccc12)CN1CCN(c2ccccc2)CC1 (stereo not drawn)	inconclusive: 29.1 µM [inhibitor, single point]	
O=C(c1ccc(Cl)cc1)C1CCN(C(=O)NC2CCCCC2)CC1	inconclusive: 14.6 µM [inhibitor, partial curve]	
c1csc(-c2nc(NCC3CCCO3)c3ccccc3n2)c1 (stereo not drawn)	inconclusive: 23.1 µM [inhibitor, single point] and inconclusive: 20 µM [inhibitor, partial curve, poor fit]	
COc1ccccc1CNC(=O)CSc1ccc(Br)cc1	inconclusive: 29.1 µM [inhibitor, single point]	
CCN(CC)CCN1CCN(c2cncc(-c3ccc4ccccc4c3)n2)CC1	active: 16.4 µM	
COc1cc(C(=O)NNC(=O)C2CCC2)cc(OC)c1OC	inactive	
C#CCOc1ccc(Cl)cc1/C=C1/C(=O)ON=C1C	inconclusive: 18.4 µM [inhibitor, single point]	
C=CCNC(=O)CSc1nc2sc(C)c(C)c2c(=O)[nH]1	inconclusive: 9.2 µM [inhibitor, partial curve]	
COc1ccc2c(c1)-c1nc(/N=C/c3cccc(OC)c3O)sc1CC2	inactive	
CC(NC(=O)Cn1cccc1C(=O)c1ccccc1)c1ccc2c(c1)OCCO2 (stereo not drawn)	inactive	
CCc1noc(C)c1C(=O)Nc1ccc(S(=O)(=O)N2CCCC(C)C2)cc1 (stereo not drawn)	inconclusive: 14.6 µM [inhibitor, partial curve]	
COCC(C)NC(=O)CSc1nc2ccccc2n1CCc1ccccc1 (stereo not drawn)	inconclusive: 23.1 µM [inhibitor, partial curve, poor fit]	
COc1ccc(CNc2ccc3c(c2)ncn3C)cc1OC	inconclusive: 29.1 µM [inhibitor, single point]	
CCOc1ccc(NC(=O)C2C(c3ccccc3)C2(Cl)Cl)cc1 (stereo not drawn)	active: 23.1 µM	
NS(=O)(=O)c1ccc(CCNC(=O)c2cc(-c3ccc(Br)cc3)nc3ccccc23)cc1	active: 8.2 µM	
O=C(CSc1nnnn1C1CCCC1)Nc1ccc2c(c1)OCCO2	inactive	
COCCNc1ccnc(-c2ccccc2C)n1	inactive	

SMILES	Potency	activity change, negative = growth inhibition
CCC(=O)NC(=S)Nc1ccc(OC)cc1OC	inconclusive: 13 µM [inhibitor, partial curve, poor fit]	
O=C(COC(=O)Cc1c(F)cccc1Cl)NCCC1=CCCCC1	inconclusive: 32.6 µM [inhibitor, single point]	
Cc1noc(C)c1NC(=O)N(C)C[C@@H]1Oc2ccc(NC(=O)Cc3cn(C)c4ccccc34)cc2CC(=O)N([C@H](C)CO)C[C@@H]1C		inconclusive: -32.1% [inhibitor]
CC(C)n1cnc2c(Nc3cccc(Cl)c3)nc(NCCCO)nc21	active: 16.4 µM	
O=C(C[C@H]1C[C@H](C(=O)N2CCOCC2)[C@@]2(CCC3CCCC3)c3[nH]c4cc(-c5ccco5)ccc4c3CCN2C1=O)NCc1cccc(C(F)(F)F)c1	inconclusive: 29.1 µM [inhibitor, single point]	
COc1ccc(C(=O)Oc2cc3c4c(c2)C(C)=CC(C)(C)N4C(=O)C3=O)cc1OC	active: 3.26 µM	
CCOC(=O)Cc1csc2nc(-c3ccccc3)nn12	inconclusive: 9.2 µM [inhibitor, partial curve]	
COc1ccc(NS(=O)(=O)c2ccc3nc(COc4ccc(Cl)c(C)c4)[nH]c3c2)cc1	inconclusive: 29.1 µM [inhibitor, single point]	
O=[N+]([O-])c1ccc(-c2nn(-c3ccccc3)cc2/C=N/n2c(-c3ccncc3)n[nH]c2=S)cc1	active: 18.4 µM	
COc1cc2nc3n(c(=O)c2cc1OC)-c1cc2ccccc2cc1C(=O)NC3CC(C)C (stereo not drawn)	inconclusive: 29.1 µM [inhibitor, single point]	
COc1cc(NS(=O)(=O)c2ccc(NC(=S)NC(=O)c3ccc(Br)cc3)cc2)ncn1	inactive	
O=c1[nH]c(C2CCN(S(=O)(=O)Cc3ccccc3)CC2)nc2c1nnn2Cc1ccccc1Cl	inconclusive: 16.4 µM [inhibitor, single point]	
N#CC(c1ccc(Cl)cc1)c1ccc2c(C(F)(F)F)cc(C(F)(F)F)nc2n1 (stereo not drawn)	active: 0.58 µM	
CC1(C(=O)NS(=O)(=O)c2cccc(C#N)c2)CCN1C(=O)CC1CCCC1 (stereo not drawn)	inactive	
COc1ccc2cc(CCNS(=O)(=O)c3ccc(C)cc3)c(=O)[nH]c2c1	active: 9.2 µM	
O=C(Nc1ccc(S(=O)(=O)N2CCCC2)cc1)c1ccc(CN2CCOCC2)cc1	inconclusive: 25.9 µM [inhibitor, single point]	
COc1ccc(C(=O)N/N=C(\C)CC(=O)Nc2cccc(C(F)(F)F)c2)cc1	inconclusive: 29.1 µM [inhibitor, single point]	
Cc1c(C(=O)N2CCC(C)CC2)oc2ccc3c(c12)C(O)CC1(CCCCC1)O3 (stereo not drawn)	inconclusive: 25.9 µM [inhibitor, single point]	
COc1ccc(C2C3CCCCC3(O)CCN2C(=O)c2cccs2)cc1 (stereo not drawn)	inactive	
O=c1c(-c2ccc(Cl)cc2)coc2c(CN3CCCCC3)c(O)ccc12	inactive	
O=C(C1CCCN(Cc2ccccc2F)C1)N1CCc2ccccc2C1 (stereo not drawn)	inconclusive: 16.4 µM [inhibitor, partial curve]	
O=C(CNC(=O)c1ccc2c(c1)OCCO2)N/N=C/c1cccc(Br)c1	inconclusive: 29.1 µM [inhibitor, single point]	
COCC(=O)N1CCC(Oc2ccc(C(=O)NC(C)c3nc(C)sc3C)cc2)CC1 (stereo not drawn)	inactive	

SMILES	Potency	activity change, negative = growth inhibition
Cc1cc(NC(=O)CSc2nc3cc4c(cc3c(=O)n2CCc2ccccc2)OCO4)no1	inconclusive: 20.6 µM [inhibitor, partial curve]	
CCn1c(=O)cc(OCC(=O)NCCc2ccc(OC)c(OC)c2)c2ccccc21		inconclusive: -30.6% [inhibitor]
Nc1c(C(=O)Nc2ccccc2)nnn1-c1ccc2c(c1)OCCO2	inconclusive: 9.2 µM [inhibitor, partial curve]	
COC(=O)c1c(NC(=O)COC(=O)CNC(=O)C2CCCCC2)sc(C)c1C	inconclusive: 20.6 µM [inhibitor, single point]	
O=C(Cc1ccc(F)cc1)N1CCC(CC2CC(c3ccc(Cl)cc3)=NO2)(C(=O)NCC2CCCCC2)CC1 (stereo not drawn)	inconclusive: 23.1 µM [inhibitor, single point]	
COc1ccc(/C=C/C(=O)NC(=S)NNC(=O)c2cccs2)cc1OC	inconclusive: 25.9 µM [inhibitor, single point]	
COC(=O)[C@@]12C[C@@H](CC(=O)N3CCSCC3)C(=O)N(Cc3cccc4ccccc34)C1=CCC(C)(C)C2	inconclusive: 20.6 µM [inhibitor, single point]	
COc1ccc(-c2c(C)[nH]n3c(=O)c(Cc4ccccc4)c(C)nc23)cc1OC	active: 18.4 µM	
Cc1ccc2cc(CN(CCCO)S(=O)(=O)c3cccc4nsnc34)c(=O)[nH]c2c1C	inconclusive: 32.6 µM [inhibitor, single point]	
O=C(Cc1ccccc1)NNC(=S)Nc1ccccc1		inconclusive: -36.3% [inhibitor]
O=S(=O)(c1ccc(-c2csc(=Nc3ccc(F)cc3)n2CCCCCCO)cc1)N1CCCC1	active: 2.59 µM	
Cc1cccc(OCC(=O)Nc2ccc3c(c2)nc(CN2CCCCC2)n3C)c1	inconclusive: 29.1 µM [inhibitor, single point] and inconclusive: 18.4 µM [inhibitor, partial curve]	
Cc1cc(C)c(-c2cc(NC(=O)CSc3n[nH]c(N)n3)n(-c3ccccc3)n2)cc1C	inconclusive: 29.1 µM [inhibitor, single point]	
COc1cccc([C@@H]2Oc3ccc(Br)cc3C(=O)[C@H]2OC(=O)NC2CCCC2)c1	inconclusive: 20.6 µM [inhibitor, single point]	
CCN(C[C@H]1N[C@@](CC)(C(=O)OC)[C@H]2C(=O)N(C)C(=O)[C@@H]12)C(=O)COC	inactive	
COC(=O)c1ccc2c(=O)n(Cc3ccc(C(=O)NC(C)C)cc3)c(=S)[nH]c2c1	active: 23.1 µM	
O=C(Nc1ccc(Cl)cc1)c1ccc(-n2cnnc2)cc1	inactive	
Cc1cccc(N2CCN(C(=O)c3cccn4c(=O)c5c(C)c(C)sc5nc34)CC2)c1C	inconclusive: 20.6 µM [inhibitor, single point]	
COc1cc2ncnc(NCc3cccc(F)c3F)c2cc1OC	inconclusive: 29.1 µM [inhibitor, single point]	
COc1ccccc1C(CNC(=O)C(C)(C)Oc1ccc(Cl)cc1)N1CCCC1 (stereo not drawn)	inconclusive: 29.1 µM [inhibitor, single point]	
CC(C)c1ccc(NC(=O)C2CCCN2S(=O)(=O)c2ccc3nc(-c4ccccc4)[nH]c3c2)cc1 (stereo not drawn)	active: 7.31 µM	
COc1cc2c(c(OCC(=O)NC(C)C)c1)C(=O)O[C@@H](C)CCCC(=O)CCCCC2	inconclusive: 10.3 µM [inhibitor, partial curve, poor fit]	
